Binding signal data for 14 molecules are collected here from article PMC12136788.

To fix the notation:
T1: UNK ZnF1-6 (called full-length) (human, UniProt Q9C0B0 30-357)
T1 sequence: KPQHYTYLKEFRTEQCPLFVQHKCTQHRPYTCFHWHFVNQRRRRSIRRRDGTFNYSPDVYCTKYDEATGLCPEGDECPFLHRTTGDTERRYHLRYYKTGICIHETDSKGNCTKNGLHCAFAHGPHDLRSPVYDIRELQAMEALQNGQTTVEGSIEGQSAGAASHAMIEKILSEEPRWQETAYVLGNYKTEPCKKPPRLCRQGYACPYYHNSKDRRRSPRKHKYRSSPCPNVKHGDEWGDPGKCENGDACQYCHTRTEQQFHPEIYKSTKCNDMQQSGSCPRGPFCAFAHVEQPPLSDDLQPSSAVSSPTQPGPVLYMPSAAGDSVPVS

B1: chr2:196133582:196137729:-|three_prime_utr|ENSG00000081320|control|control|control (ssRNA)
RNA: GGGAGUUCUACAGUCCGACGAUCUCUGUAAGGUCCUCUGAAGACAAGACUUCUAAAUCCUCCUGUAAUGGAACCUGUGGUGAUAGAGAAGACAAAGAGAAUAUCCCAGAGGAUAGCAGCAUGGUUUCCAAAAGAUUUCGUUUCCAACAGAGGAUUGAGCAUCA
B2: chr6:43287355:43287456:+|3pUTR|ENSG00000146216|unk|total|mutant (ssRNA)
RNA: GGGAGUUCUACAGUCCGACGAUCUAUGACUCCUGGUGCCCAGGCCCUGGGCCUGCUCCUUGCCACCAACCGAACCGUGAAUGCCGGGCCCCCAGCCUCACCUCUGCCCCAGGACCAACAACACCCUGGUUUGGAGCUGGGAGGCAACAGAGGAUUGAGCAUCA
B3: chr3:11557161:11557262:-|3pUTR|ENSG00000144560|msi1|FALSE|unique (ssRNA)
RNA: GGGAGUUCUACAGUCCGACGAUCCCUCUGACUUUAUACUGUUAUUACUGCAUUUAUUAUUUGCUAUAUUAAUAGCUACUAACUAGAAAUUAGAUGAAGCAAGCAUGACAGACACAGCUGUGGAGGUCACAGCUGCUCCUUUUUCAACAGAGGAUUGAGCAUCA
B4: chr8:81702113:81702224:-|3pUTR|ENSG00000104231|unk|total|mutant (ssRNA)
RNA: GGGAGUUCUACAGUCCGACGAUCGUACCGCCUUGCUGUCUGUCUACAUCAUGAUGUAUAAAUUGAUAUAUCUACAUGAAUUACCGAAACUCCGAAGUGAUCUUUAUUCAGUCUUAUAAUUUUUACAUGAAGAAUCUCCGGCCUCAACAGAGGAUUGAGCAUCA
B5: ENSG00000198589:be:win_5051|CDS|ENSG00000198589|bound_else_gene|NA|bound_elsewhere_windowed (ssRNA)
RNA: GGGAGUUCUACAGUCCGACGAUCGCUUGGUUAACAUACCAGCAGAUGGAGUCACAGUGGAUCCUGCCCUUCUGCCACCAGCCUGCCUUGGAGCCCUUGGUGAUCUAUCUGUGGAACAACCCGUGCAGUUCAGAUCUUUUGACACAACAGAGGAUUGAGCAUCA
B6: chr8:18529670:18529771:-|3pUTR|ENSG00000156011|msi1|FALSE|bound_elsewhere (ssRNA)
RNA: GGGAGUUCUACAGUCCGACGAUCUAAAGCCAUGGAGUUUAUAAAGCCAAGUAACCAUUUGAUAUGGAUAAUAAUAUCUACUCUAGAGAGAGUAUAUAUAUGCACAUUGAUUUUUAAUGCUGUUAAGAUACUUUUGUAAAACUGCAACAGAGGAUUGAGCAUCA
B7: chr11:69651733:69651797:+|3pUTR|ENSG00000110092|msi1_unk|FALSE|overlapping (ssRNA)
RNA: GGGAGUUCUACAGUCCGACGAUCAAAACAUUUUAAAAACAUAGAAAAAUUCAGCAAACCAUUUUUAAAGUAGAAGAGGGUUUUAGGUAGAAAAACAUAUUCUUGUGCUUUUCCUGAUAAAGCACAGCUGUAGUGGGGUUCUAGCAACAGAGGAUUGAGCAUCA
B8: chr15:38352922:38353023:+|3pUTR|ENSG00000166068|msi1|total|mutant (ssRNA)
RNA: GGGAGUUCUACAGUCCGACGAUCUACAUAUAAAUUUAUUUCUUUUGCAGAGCAUUAUAUUACUGGAUGUUUAAUUUACAAAACCGUUGGGUAAAUGUUCCAACAAACUUUAAAGUACCUUGAAGUCAAAUUGUCUGUUUUUGUCAACAGAGGAUUGAGCAUCA
B9: chr7:137879121:137879144:-|3pUTR|ENSG00000182158|msi1_unk|total|mutant (ssRNA)
RNA: GGGAGUUCUACAGUCCGACGAUCUAAUCCCCAACCUACUUUCCGUUUUUUUGUUUUUUUUUUAUGGUUAAAAGUAACUUUUGCCGUUUAAAAAAAUCUUUCCUCUUUCAUAUAAAUAAGAAGUGGAAAUUGCCUUUUUAUUGUCAACAGAGGAUUGAGCAUCA
B10: chr9:121988909:121989747:-|three_prime_utr|ENSG00000175764|control|control|control (ssRNA)
RNA: GGGAGUUCUACAGUCCGACGAUCACCUCUCCUUAUCGACAAGCUCAAGUUUGAUAUUCGUCUGUAUGUCUUACUCAAGUCCUUAGACCCCUUAGAGAUUUAUAUAGCCAAAGACGGACUCUCUAGGUUUUGUACCGAGCCAUACAACAGAGGAUUGAGCAUCA
B11: chr11:107429260:107429366:-|CDS|ENSG00000152404|unk|total|mutant (ssRNA)
RNA: GGGAGUUCUACAGUCCGACGAUCGAGGAAACCCACAUAUUCAGAUAAAGCACAAAAUUGUCAAGAAAGCCGAGAAUCAGACUCCGUAAAAUAUGGUAACAGUUCAAGGGACCGAUAUGCUACAACAGAUACUGCAAAAAACCGCAACAGAGGAUUGAGCAUCA
B12: chr21:18281039:18281221:-|CDS|ENSG00000154646|control|control|control (ssRNA)
RNA: GGGAGUUCUACAGUCCGACGAUCACCUCUCCUCAAACAGUCCCUCGAUUAAUAGAUGAAAUUGUCAUAAACCCUCAUUACAAUAGGCGAAGAAAGGACAACGACAUUGCCAUGAUGCAUCUGGAAUUUAAAGUGAAUUACACACAACAGAGGAUUGAGCAUCA
B13: chr2:5695263:5695412:+|3pUTR|ENSG00000176887|msi1_unk|FALSE|overlapping (ssRNA)
RNA: GGGAGUUCUACAGUCCGACGAUCUGGUGAUAUAGACCUCAGAGCUGUUAUCUUAGUUUAAAGAUUGUAUAUGUACUGUACUAUAGUAGGACUUUAUGUAUCUCAUACGCUGUGAUGUGGAUGGGGCCCCAGAUGGAAGGUUUGCAACAGAGGAUUGAGCAUCA
B14: chr2:216672374:216672548:-|3pUTR|ENSG00000115461|msi1|FALSE|unique (ssRNA)
RNA: GGGAGUUCUACAGUCCGACGAUCUUUUUCUUUUUUUUUUUGAAGACAGCAAUAACCACAGUACAUAUUACUGUAGUUCUCUAUAGUUUUACAUACAUUCAUACCAUAACUCUGUUCUCUCCUCUUUUUUGUUUUCAACUUUAACAACAGAGGAUUGAGCAUCA

This is one part of the list.

The target of the test is T1, UNK ZnF1-6 (called full-length). Description: nsRBNS (natural sequence RNA bind-n-seq); RBNS binding buffer (assumed for nsRBNS): 25 mM Tris pH 7.5, 150 mM KCl, 3 mM MgCl2, 0.01% Triton X-100, 500 ug/ml BSA, 20 U/ml SUPERase-In, 4 C; UNK is unkempt and MSI1 is Musashi-1; names of the RNAs are library labels; protein concentration not given here; high values mean tight binding.
On to B1, for which the binding signal was determined as 0.528 enrichment R.
B2: the binding signal stood at 0.908 enrichment R.
The result for B3 reads 2.34 enrichment R.
In turn, B4 gave a binding signal of 0.607 enrichment R.
As for B5, the binding signal is 1.05 enrichment R.
As for B6, the binding signal worked out at 0.558 enrichment R.
The molecule B7 gave a binding signal of 8.88 enrichment R.
As for B8, the binding signal is 0.824 enrichment R.
Molecule B9 showed a binding signal of 0.762 enrichment R.
As for B10, the binding signal was determined as 1.29 enrichment R.
Turning to B11, the binding signal was determined as 0.603 enrichment R.
The result for B12 reads 0.684 enrichment R; that for B13, 1.36 enrichment R.
In the case of B14, the binding signal was determined as 12.2 enrichment R.
